The full ranking holds about 110,000 compounds; the median of “z-score” is about -0.1, and the highest 2% start at about 2. This is one part of the list. The source made the active and inactive calls.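 How the source made its calls: active means z-score in the third read window above 3 or below -3; inactive means the rest.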

In the test the target is Metabotropic glutamate receptor 8 (Rattus norvegicus) (UniProt P70579). Briefly: rat mGluR8 modulators via GIRK flux, primary screen, cell-based, thallium flux, HTS (AID 488969). The conditions noted are these: HEK293 rat mGluR8, GIRK (G protein-gated inwardly rectifying potassium channel) thallium flux, FluoZin2; at 10 µM; stronger effect = higher value; submaximal glutamate (EC20) added with thallium.
UniProt P70579, sequence (P70579 whole entry, looked up): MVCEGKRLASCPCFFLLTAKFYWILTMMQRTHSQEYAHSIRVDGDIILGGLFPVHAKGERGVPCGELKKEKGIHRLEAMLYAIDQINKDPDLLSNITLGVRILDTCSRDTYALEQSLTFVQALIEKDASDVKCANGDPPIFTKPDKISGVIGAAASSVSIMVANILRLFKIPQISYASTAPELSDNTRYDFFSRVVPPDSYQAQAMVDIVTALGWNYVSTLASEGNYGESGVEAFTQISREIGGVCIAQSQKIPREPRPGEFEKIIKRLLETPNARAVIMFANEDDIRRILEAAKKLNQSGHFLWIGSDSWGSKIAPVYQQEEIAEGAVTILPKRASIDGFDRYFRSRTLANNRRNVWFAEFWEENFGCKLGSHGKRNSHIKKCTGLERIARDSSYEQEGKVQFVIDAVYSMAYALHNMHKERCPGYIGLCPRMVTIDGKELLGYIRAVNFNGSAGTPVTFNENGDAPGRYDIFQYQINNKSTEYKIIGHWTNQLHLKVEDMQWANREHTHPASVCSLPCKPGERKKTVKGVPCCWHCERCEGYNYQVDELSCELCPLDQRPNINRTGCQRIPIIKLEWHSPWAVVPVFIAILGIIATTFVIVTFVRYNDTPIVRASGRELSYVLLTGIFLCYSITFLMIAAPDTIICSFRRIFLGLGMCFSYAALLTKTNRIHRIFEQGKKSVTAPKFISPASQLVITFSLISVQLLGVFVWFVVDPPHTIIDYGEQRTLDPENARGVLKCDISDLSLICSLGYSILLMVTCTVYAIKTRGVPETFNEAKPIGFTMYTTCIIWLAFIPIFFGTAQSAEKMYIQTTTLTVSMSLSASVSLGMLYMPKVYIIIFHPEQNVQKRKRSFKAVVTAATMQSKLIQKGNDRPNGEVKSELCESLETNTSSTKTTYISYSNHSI
Turning to `CCOc1cc(CO)cc(Br)c1OCC(=O)O`, the z-score was -0.3.
As for `O=C(/C=C/c1ccc(Cl)cc1Cl)N(Cc1ccccc1)C1CCS(=O)(=O)C1` (stereo unspecified), the figure is -0.748.
As for `O=c1oc2ccccc2c(Nc2ccccc2)c1[N+](=O)[O-]`, the figure is 0.27; as for `CC1(C)COC(c2cccc(C3=NC(C)(C)CO3)n2)=N1`, 0.19.
The molecule `Cc1cc(C(=O)CSc2nnc(N)s2)c(C)n1CCc1ccc(Cl)cc1` registered a z-score of 1.21.
In the case of `COc1ccc(C(=O)CN2C(=O)NC(C)(c3ccccc3)C2=O)cc1OC` (stereo unspecified), the z-score was -0.173.
Under `CC12CC(NC(=O)N1c1cccc(C(=O)NCc3ccccc3)c1)c1ccccc1O2` (stereo unspecified) stands -0.344.
Under `COCCNC(=O)c1cc2c(=O)n(C)c3ccccc3c2n1C` stands -0.524; under `Cc1ccc(-c2cc(C(=O)OCC(=O)Nc3ncc(C(F)(F)F)cc3Cl)c3ccccc3n2)cc1`, -0.308.
As for `CC(Sc1nc2ccccc2s1)C(=O)NC1CCCc2ccccc21` (stereo unspecified), the figure is -0.216.
In turn, `O=C(C(Cc1ccccc1)n1cccc1)N1CCCCCC1` (stereo unspecified) yielded a z-score of 0.284.
Under `CCOCCCn1c(C)nc2c(c1=O)c1nc3ccccc3nc1n2CCC1=CCCCC1` stands -0.551; under `CC(C)CNC(=O)COC(=O)CCC(=O)c1ccc(F)cc1`, -0.0187; under `COCCSc1nc2sc3c(c2c(=O)n1-c1ccccc1)CCN(C)C3`, 1.74.
`COc1ccc(-c2cc(C(=O)Nc3c(C)nn(Cc4ccccc4Cl)c3C)no2)cc1`: the z-score was -0.115.
Under `CCn1c(C)cc(/C=C2\NC(=O)N(Cc3ccccc3)C2=O)c1C` stands -0.148; under `COC(=O)c1ccc(OC(=O)CCN2C(=O)C3CCCCC3C2=O)cc1` (stereo unspecified), -0.48.
With `Cc1cc(NC(=O)CCSc2nc(-c3ccco3)cc(C(F)(F)F)n2)no1`, the z-score is -0.181.
As for `COc1cc(/C=C2\SC(c3ccc(C)cc3)=NC2=O)cc(OC)c1O`, the figure is -0.229.
Molecule `Cc1ccccc1CN1CCN(CC(=O)NCCCN2CCN(c3ccc(F)cc3)CC2)C1=O` yielded a z-score of -0.818.
`Cc1c(/C=C2\SC(=O)N(CC(=O)Nc3ccc4c(c3)OCO4)C2=O)c2ccccc2n1C` had a z-score of 0.0495.
As for `CCOC(=O)c1cc2c(ccn2C)n1CC(=O)N1CCCC(C)C1` (stereo unspecified), the figure is -0.438; as for `Cc1cc(Cl)c(OCCCCNC(C)(C)C)c(Br)c1`, -0.101.
As for `CCn1c(=O)n(CC(=O)N2CCN(c3ccccc3F)CC2)c(=O)c2ccccc21`, the figure is -0.454.
As for `CN(C)c1ccc(-c2nc3n(n2)C(c2cccnc2)C2=C(CC(C)(C)CC2=O)N3)cc1` (stereo unspecified), the z-score amounted to 0.11.
Under `COC(=O)Nc1nc(-c2ccccc2)c(C(=O)c2ccccc2)s1` stands -0.123; under `CCCS(=O)(=O)N1CCN(Cc2ccc3c(c2)c2ccccc2n3CC)CC1`, 0.291; under `CCn1c(SCC(=O)c2ccc(Cl)cc2)nnc1-c1cccs1`, -0.547.
For the molecule `Cc1nc(NC(=O)COC(=O)C(NC(=O)c2ccco2)C(C)C)c(Cl)cc1Cl` (stereo unspecified), the z-score is -0.829.
`O=C(N/N=C/c1ccc(O)cc1)c1csc2c1CCCC2` yielded a z-score of -0.827.
As for `O=C(CCCCCNS(=O)(=O)c1ccc(Br)cc1)NCCN1CCOCC1`, the figure is 0.263; as for `Cc1ccc(C(C(=O)NC2CCCC2)N(Cc2ccco2)C(=O)CCC(=O)Nc2ccccn2)cc1` (stereo unspecified), -0.557; as for `Cc1ccc(-n2nnc3c(=O)n(Cc4ccccc4C)cnc32)cc1`, 0.631.
In turn, `O=C(CN(c1ccc(Cl)cc1)S(=O)(=O)c1ccc(Cl)c([N+](=O)[O-])c1)NCCc1ccc(F)cc1` displayed a z-score of -0.126.
Under `Cc1cccc2c1OCC/C2=N\NC(=O)COc1ccccc1` stands 0.472.
Under `CN(Cc1cc2ccccc2[nH]c1=O)C(=O)C1CCCCC1` stands -0.113; under `CC1=C(C(N)=O)C(c2cccnc2)n2nc(-c3cccc(Cl)c3)nc2N1` (stereo unspecified), 0.192; under `O=C(NCc1cccnc1)C1c2ccccc2C(=O)N1Cc1ccco1` (stereo unspecified), -0.12.
On to `CN(C)C(/C=C/Nc1ccccc1F)=C(C#N)C#N`, for which the z-score was 0.0306.
As for `O=C(NN=C1CCCCCCC1)C(=O)NC1CCCCC1`, the figure is 0.327; as for `CCOc1ccc(N/C(SC)=C(/C#N)C(N)=O)cc1`, -0.125; as for `CCCC(=O)NC(NC(=S)Nc1ccc(N=Nc2ccccc2)cc1)C(Cl)(Cl)Cl` (stereo unspecified), 1.78.
Under `CC(=O)Nc1ccc(OCC=C(Cl)Cl)cc1` stands 7.27e-06; under `C(=N\N1CCN(C2c3ccccc3-c3ccccc32)CC1)/c1cccnc1`, -0.385.
Under `CS(=O)(=O)N1CCN(C(=O)C2c3ccccc3Oc3ccccc32)CC1` stands -0.193.
The molecule `CCOc1ccccc1N(CC(=O)N1CCOCC1)S(=O)(=O)c1ccccc1` returned a z-score of 0.28.
Under `C/C(Nc1ccc(Cl)cc1)=C(/C#N)C(N)=O` stands 0.0897.
As for `Cc1cc(C)cc(Cn2ncc(Cl)c(Cl)c2=O)c1`, the figure is -0.081; as for `O=c1c2ccccc2nnn1CSc1nnc2sc3ccccc3n12`, -0.991; as for `COc1ccccc1OCCSc1nnc(C)n1-c1ccccc1`, -0.339.
Under `CCOC(=O)CSCC(NC(=O)OC(C)(C)C)C(=O)OCC` (stereo unspecified) stands -0.352.
Turning to `Cc1cc(C)n2nc(-c3sccc3-n3cccc3)cc2n1`, the z-score is -0.232.
On to `N#Cc1cccc(C(c2nnnn2CCc2ccccc2)N2CCN(C3CCCCC3)CC2)c1` (stereo unspecified), for which the z-score is -0.0112.
As for `COc1ccc(-c2nc3ccc([N+](=O)[O-])cc3[nH]2)cc1`, the figure is -0.634.
Consider `Cc1ccnc(N2C(=O)C3C4CC(C(Br)C4Br)C3C2=O)c1` (stereo unspecified), for which the z-score came to 0.0912.
As to `COC(=O)c1ccc(NC(=O)CSc2nnc(COc3ccccc3)n2C)cc1`, the z-score was active: 11.8.
Molecule `COCCNC(=O)C(c1ccc(F)cc1)N(CCOC)C(=O)CCC(=O)Nc1nccs1` (stereo unspecified) gave a z-score of -0.387.
As for `Nc1nc(NC(=O)C(Cl)(Cl)Cl)nn1-c1ccccc1`, the figure is -0.448; as for `COc1ccc(NC(=O)Nc2ccc3c(c2)N(C)C(=O)CS3)cc1Cl`, -0.0405; as for `COCCSc1ccccc1C(=O)N1CCCC1`, 1.26.
As for `Cc1cc(C(=O)NCc2cccnc2)cs1`, the figure is 0.217; as for `CCN(c1ccc(NC(=O)COC(=O)c2cccs2)cc1)C(C)C`, -0.152; as for `Nc1nc2n(n1)C(c1ccco1)CC(c1ccccc1)N2` (stereo unspecified), -0.0773.
`Cn1ncc2c1ncn1nc(COc3ccc4ccccc4c3)nc21` displayed a z-score of -0.0477.
Under `Cc1sc2ncnc(OCC(=O)NC(C)C)c2c1C` stands -0.178; under `CSc1nc2ccc(S(=O)(=O)N3CCCCC3)cc2s1`, -0.209.
The molecule `COc1ccc(S(=O)(=O)Nc2cccc(S(=O)(=O)N3CCCCCC3)c2)cc1` yielded a z-score of -0.405.
In the case of `CC(=O)Nc1cccc(N2CCCC2=O)c1`, the z-score turned out to be 0.353.
`Cc1ccc(-n2nc(C)c(C3(O)C(=O)N(C)c4ccccc43)c2N)cc1` (stereo unspecified) had a z-score of -0.211.
As for `Clc1ccc(-c2nnc3sc(-c4ccc(Br)o4)nn23)cc1`, the figure is -0.394.
As for `O=C(NC1CS(=O)(=O)CC1NCc1ccco1)c1ccccc1` (stereo unspecified), the z-score came to 0.308.

These data come from PubChem BioAssay AID488969 (Vanderbilt High Throughput Screening Facility, 2010).
